Source: PubChem BioAssay AID1963974 (Molecular Pharmacology Branch, DTP, NCI, 2024)
Some entries of the source have several records that differ or are many. Only these are listed. The source may hold further records. Values that stand side by side repeat one measurement (runs, samples, wells, individuals or studies).

Tested on: 648629-189-R-J1-PDC spheroids with HUVEC/MSC, viability
Experiment: Anticancer human tumor 648629-189-R-J1-PDC patient-derived bladder carcinoma cell line growth inhibition [PI3K]
Settings: stronger effect = lower value
Text: Combinatorial screen of targeted agents with the PI3K inhibitors inavolisib, alpelisib, duvelisib, and copanlisib in multi-cell type tumor spheroids
A high-throughput screen of multi-cell type tumor spheroids was designed to identify active combinations of targeted small molecules and PI3K pathway inhibitors. Complex spheroids include a stromal component modeled by human endothelial cells (HUVEC) and fibroblasts modeled by human mesenchymal stem cells (MSCs). The concentration ranges selected for each drug and investigational agent were based upon clinically achievable concentrations if the clinical Cmax of the agent was known.
Compounds. The drugs and investigational agents: inavolisib (NSC800729), alpelisib (NSC765974), duvelisib (NSC772469), copanlisib (NSC816437), ipatasertib (NSC767898), afuresertib (NSC778305), talazoparib (NSC767125), sapanisertib (NSC764658), selumetinib (NSC741078), tovorafenib (DAY101, NSC766906), vemurafenib (NSC761431), ravoxertinib (NSC781343), sotorasib (NSC818433), MRTX1133 (NSC 836407), abemaciclib (NSC 768073), palbociclib (NSC758247), venetoclax (NSC 766270), SY5609 (NSC837396), enzalutamide (NSC755605), and darolutamide (NSC825331), were obtained from the National Cancer Institute (NCI) Developmental Therapeutics Program Chemical Repository. The FDA-approved anticancer drug set is available from the NCI Developmental Therapeutics Program. […] The stock solutions were prepared in dimethyl sulfoxide (DMSO, Sigma-Aldrich, St. Louis, MO, cat. D2650) at 800-fold the tested concentration and stored at -70 degrees C prior to their use. All drugs and investigational agents were tested over a range starting from a high concentration at or near the clinical Cmax and decreasing in half-log increments. If the clinical Cmax for an agent had not been determined, the highest concentration tested was 10 microM.
Cell Culture. All cells were maintained in an incubator at 37 degrees C and 5% CO2 with 95% humidity. The PDC lines were cultured according to standard operating procedures established by the NCI PDMR (https://pdmr.cancer.gov/sops/default.htm). All PDCs were thawed and cultured in Matrigel-coated flasks prepared with a working solution of 1X Ham's F-12 nutrient mix, without supplementation (Invitrogen, Waltham, MA, cat. 11765054), 100 U/mL penicillin-streptomycin (Invitrogen, cat. 15140122), and 2.5% Matrigel (Corning Inc., Corning, NY, cat. 354248) for the first three passages. […]
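Note: spheroids exposed to agents for seven days before reading; percent of vehicle control luminescence where 100% = DMSO treated spheroids.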

Compound	viability, T/C (compound alone 0.1 µM)	viability, T/C (compound alone 10 µM)
C#Cc1c(F)ccc2cc(O)cc(-c3ncc4c(N5CC6CCC(C5)N6)nc(OCC56CCCN5CC(F)C6)nc4c3F)c12 (centres undefined)	109, 94.7, 92.8, 119%	
CC1(C)CCC(CN2CCN(c3ccc(C(=O)NS(=O)(=O)c4ccc(NCC5CCOCC5)c([N+](=O)[O-])c4)c(Oc4cnc5[nH]ccc5c4)c3)CC2)=C(c2ccc(Cl)cc2)C1		10.6, 7.77, 68.4, 107%
CC(C)NCC(C(=O)N1CCN(c2ncnc3c2C(C)CC3O)CC1)c1ccc(Cl)cc1 (centres undefined)	98.2, 103, 88, 72.6%	
Cn1ncc(Cl)c1-c1cc(C(=O)NC(CN)Cc2cccc(F)c2)sc1Cl (centres undefined)		3.77, 98.5, 11.1, 6.71%
